Assay results reported in the supplement of paper PMC3334620.
In all, about 33,000 sequences were measured (“E-score (-0.5 to 0.5)”: median about -0.041, highest 2% from about 0.37 on). The list shows a part of the results.

Molecular target: T1, Ecm22 (UniProt Q05958)
T1 sequence: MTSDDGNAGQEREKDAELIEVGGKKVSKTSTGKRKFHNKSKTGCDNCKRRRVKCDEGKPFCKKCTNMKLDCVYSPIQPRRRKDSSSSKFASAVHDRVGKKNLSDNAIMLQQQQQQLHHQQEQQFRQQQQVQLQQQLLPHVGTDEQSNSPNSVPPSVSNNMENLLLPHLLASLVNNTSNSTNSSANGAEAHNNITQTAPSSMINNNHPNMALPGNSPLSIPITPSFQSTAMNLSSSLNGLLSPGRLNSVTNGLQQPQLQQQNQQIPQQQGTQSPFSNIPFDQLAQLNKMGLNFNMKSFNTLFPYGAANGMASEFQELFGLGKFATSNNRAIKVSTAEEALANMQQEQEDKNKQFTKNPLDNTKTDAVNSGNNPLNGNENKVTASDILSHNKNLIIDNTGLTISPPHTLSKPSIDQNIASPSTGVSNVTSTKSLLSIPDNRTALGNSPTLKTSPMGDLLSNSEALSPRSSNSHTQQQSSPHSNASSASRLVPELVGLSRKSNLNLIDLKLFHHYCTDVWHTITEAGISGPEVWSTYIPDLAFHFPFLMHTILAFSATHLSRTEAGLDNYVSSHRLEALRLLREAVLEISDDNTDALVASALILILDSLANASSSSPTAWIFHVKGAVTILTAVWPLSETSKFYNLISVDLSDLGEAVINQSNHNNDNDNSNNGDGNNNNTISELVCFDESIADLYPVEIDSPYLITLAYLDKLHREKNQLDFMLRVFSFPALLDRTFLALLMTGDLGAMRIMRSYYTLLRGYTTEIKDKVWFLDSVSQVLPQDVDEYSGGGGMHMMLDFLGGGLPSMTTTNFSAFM
Assay: PBM E-score (8-mer binding enrichment) (E-score (-0.5 to 0.5)); higher = stronger / more preferred TF binding; most listed sequences are background and not binding sites
Settings: protein concentration: 200 nM; construct: GST-full length
In short: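 Masliner-normalised scans of fluorescent anti-GST signal were the basis for scoring. That signal came from GST-tagged yeast transcription factors applied at about 100-200 nM to double-stranded universal all-10-mer Agilent arrays on fresh or once-stripped slides. Each ungapped eight-base word, pooled with its reverse complement, received an E-score from the Universal PBM Analysis Suite.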

Row | Sequence | PBM E-score
1 | CGTGGCTC | -0.0731
2 | ATAGTCGC | 0.146
3 | CAACCCTA | -0.119
4 | ATCATTAC | 0.0137
5 | ATACTGTG | -0.00032
6 | ATTACTCG | 0.162
7 | CCTCGCCC | 0.209
8 | ACCACTCA | -0.0269
9 | CCGCATTC | -0.074
10 | AAGCCAGC | -0.0184
11 | CTTCTATC | -0.0966
12 | CCGGCCTA | -0.0841
13 | CGCGGCCA | -0.187
14 | CATCCTCC | 0.0293
15 | GTAGCTTA | 0.121
16 | AATGGCTG | -0.124
17 | AGAACTTG | -0.0307
18 | CCGCCATC | -0.267
19 | TATCTACA | -0.0752
20 | GAGGTAAC | 0.122
21 | ACAAGAAC | 0.205
22 | GTTGATTA | -0.011
23 | CAGCACAA | 0.0144
24 | ACGGGGCT | 0.0577
25 | CTAATCAG | -0.108

Row | Sequence | PBM E-score
26 | CCTCGCAG | 0.0132
27 | ACGCCAAT | 0.125
28 | ATTGTGAG | -0.0713
29 | AATAGACG | 0.0929
30 | CAGTCCGA | -0.0909
31 | CCGTGGAG | -0.179
32 | CCTGCCCA | -0.4
33 | CCCTCATC | -0.0579
34 | CATGCGAA | 0.214
35 | CTGTAAAG | -0.0602
36 | AAGGCGTC | -0.0974
37 | TAGATACA | 0.00716
38 | AACCACAG | -0.0787
39 | ACCATGCC | -0.251
40 | GTCGAGGA | -0.11
41 | CAGGCCGG | -0.32
42 | ACGAAATA | 0.381
43 | GCCGTACC | 0.441
44 | ATCGTCAG | -0.276
45 | CTACTGCA | -0.158
46 | ATCACTGA | -0.129
47 | CAAGAGAG | -0.156
48 | GAAATATA | 0.16
49 | CGCCTGTC | -0.0793
50 | CAGTCAGG | -0.254

Row | Sequence | PBM E-score
51 | AGTCCTTG | -0.27
52 | GGACGGAC | -0.0309
53 | GATGGCAA | -0.0627
54 | TAAAGCTA | -0.115
55 | AGTGCCCA | -0.126
56 | CGCCGCTA | -0.0727
57 | AACTGCCG | 0.0114
58 | CGCAAGAA | 0.152
59 | CCGAGACG | 0.205
60 | GCAAGAAA | -0.095
61 | ATCGTATC | 0.418
62 | AATACCGG | -0.042
63 | CGACTTTC | 0.112
64 | GCACAGTA | 0.0488
65 | CATGGGAC | -0.278
66 | AACGGTCA | 0.204
67 | GCAGGGCC | -0.0785
68 | GCCAGATA | -0.00835
69 | CTAATATC | 0.00353
70 | ACCATCAA | -0.121
71 | CCGTCAGC | -0.215
72 | CTCACTAA | 0.085
73 | AACTGCCA | -0.0583
74 | AGCGCATA | 0.025
75 | CCTTCGGA | 0.249

Row | Sequence | PBM E-score
76 | CGCTCAGA | 0.112
77 | ATCCCACG | -0.124
78 | AGCATACG | 0.294
79 | CTTAGGTC | 0.0126
80 | CCTATAGC | -0.248
81 | ACGTCATA | 0.0355
82 | GCTATTAC | 0.0971
83 | GGGAATAC | 0.154
84 | GGTCAGTA | -0.0823
85 | GGATGCCA | -0.257
86 | TAGCACTA | -0.229
87 | CCACTTGA | -0.227
88 | ACAGTCTA | -0.00051
89 | AGGTAAAT | -0.0314
90 | CGGGGCTC | 0.0952
91 | GGTGATAA | -0.0729
92 | ACCAACCT | -0.108
93 | ATCCCCCG | 0.0316
94 | CTAAACAA | -0.262
95 | CGTTAATC | 0.323
96 | CGAGGGGA | 0.327
97 | GGAGCAAC | -0.0171
98 | ACAGCGCT | 0.0457
99 | CATCACCC | -0.22
100 | AAGTTGAC | 0.0165

Row | Sequence | PBM E-score
101 | CAAAAGCA | -0.0601
102 | AGCGAAGC | 0.138
103 | GTGAAAAC | 0.00576
104 | GAACCGAA | 0.276
105 | AAATCCGG | 0.104
106 | GGGAAACC | -0.0175
107 | TTAATCAA | 0.0361
108 | CCGAGACC | 0.0754
109 | GTACTATA | 0.175
110 | CAGGAAAC | 0.0585
111 | AACTTACG | 0.173
112 | AGAATCAT | -0.0857
113 | CTCGAGCA | -0.0461
114 | ACAAGTGC | 0.0148
115 | CGGCCTTA | -0.105
116 | CTTCATCC | -0.178
117 | AACACCCT | -0.176
118 | ACAGATGA | -0.0756
119 | ACGGGGAA | 0.249
120 | AAACCAGA | -0.0849
121 | AGCGATGC | 0.212
122 | GCGTGGCC | -0.0838
123 | ATTGGTAA | -0.0838
124 | GCAAACTA | -0.0308
125 | CAGAAACA | -0.0444

Row | Sequence | PBM E-score
126 | AATCCGAT | 0.142
127 | GGACTGAA | -0.141
128 | CCAGTGTC | -0.0884
129 | ACGGAATG | 0.0826
130 | AGCGGTTC | 0.0806
131 | ACACCTAA | 0.059
132 | TCATAAAA | -0.0555
133 | AAGCCCTC | -0.0697
134 | CTAAATGA | -0.165
135 | CCGCGGGC | -0.2
136 | ATCAAGCC | 0.0241
137 | AAAGTGGT | -0.0949
138 | ACACATAC | 0.0488
139 | CCTAACCG | 0.0543
140 | ATCTCTGA | -0.207
141 | AAACCGAC | 0.282
142 | GCTCTTCC | -0.0296
143 | CAAAACGG | 0.0645
144 | ACTTGAAG | -0.12
145 | ACACTGAG | -0.0764
146 | CGTGCCGC | 0.176
147 | ATTCATCG | 0.0765
148 | ACTATATA | 0.16
149 | CCCGACCC | 0.092
150 | ACCGACAG | 0.156

Row | Sequence | PBM E-score
151 | ACCGAGTC | 0.0171
152 | CTGATAAA | -0.0416
153 | AGGCCCAG | -0.302
154 | GATAGCCA | -0.13
155 | CATGCTAC | -0.225
156 | GGCGGCCA | -0.241
157 | ATTTACGC | 0.0401
158 | ATATTCGG | 0.0737
159 | TATACTAA | 0.184
160 | AGTTGAGA | -0.0828
161 | GCTTGCTA | -0.0965
162 | CGTCAGTC | -0.0862
163 | GGCGCCAA | -0.0449
164 | CGCACACA | -0.00717
165 | AAGTTTCA | 0.136
166 | CCCGCGGG | -0.195
167 | ATCGTCTG | 0.128
168 | GGACCGTA | 0.233
169 | ACGTGCCA | -0.256
170 | GCACAGAA | -0.068
171 | ACTGGGAC | -0.133
172 | AGACGATC | -0.0754
173 | CATACCAA | -0.12
174 | CTGCGTTC | 0.213
175 | CCGGAGTA | 0.118

Row | Sequence | PBM E-score
176 | GCACAGCA | 0.0196
177 | AACAACGT | 0.054
178 | ATATACAT | 0.0421
179 | CCTCCAGC | -0.0677
180 | GAAACTAC | -0.0387
181 | CTTGTTCC | 0.0902
182 | CATTGTAG | -0.0693
183 | GAACACTA | -0.126
184 | ATTGTTTA | -0.0806
185 | ACGACCTC | 0.337
186 | AGGTATTG | -0.0537
187 | ATAGTTCG | 0.0449
188 | CTGTGAAA | 0.112
189 | ACGCACGA | 0.229
190 | CAGGCTAG | -0.246
191 | CGTGTCAG | 0.0365
192 | AAATTCCT | -0.176
193 | ACAGTCAA | 0.0316
194 | AACACAAA | 0.146
195 | TCAAAGCA | -0.0829
196 | CATTGTCG | 0.0896
197 | ACGTTACT | 0.0882
198 | AGAGTAAA | -0.0459
199 | GCGAGCTA | 0.248
200 | ATAGTAAC | -0.0177

Row | Sequence | PBM E-score
201 | GGACGCAA | -0.0673
202 | ATGCGTCC | -0.169
203 | CGTGCCCC | -0.104
204 | CGCTACGA | 0.456
205 | CTGTGTGC | -0.142
206 | CACAGGAG | 0.0417
207 | CTCGAACC | 0.115
208 | TAACAGTA | 0.11
209 | ATCCAAGA | -0.0871
210 | CTCTGATC | -0.128
211 | CATGCTGG | -0.278
212 | ACTTCGAC | 0.0621
213 | CGCCAAAA | 0.0978
214 | ACGACAGA | 0.341
215 | GACGAGCA | 0.0907
216 | ACTCCGCG | 0.107
217 | GTGGAATA | 0.0081
218 | TGAGATAA | -0.0236
219 | TATTCCAA | -0.0763
